Certain results were filed several times, with different values. They are shown here; other results are not. The source may hold further records. For part of these data: Values given together appear to be repeats (runs, samples, wells or individuals). For part of these data: The values listed for one entry seem to repeat one measurement; one of them may be the mean.
Legend:
[1] = target: T1, canine FcRn (UniProtKB-E2R0L6 [FcRn] and UniProtKB-E2RN10 [canine beta-2-microglobulin]) (canine); assay: SPR Biacore 8K, pH 5.5, Fc captured via SASA tag on BSA, canine FcRn 400 nM
[2] = target: T1, canine FcRn; assay: SPR Biacore 8K, pH 5.5, Fc captured via SASA tag on BSA, canine FcRn 200 nM

Molecule | koff [1] | kon [1] | further results
canine IgG.B Fc variant A254S (SASA-tagged CH2-CH3) (Fc fusion) | 2.69 s⁻¹ and 0.758 s⁻¹ [lines of one column] | 7.9e+06 M⁻¹ s⁻¹ and 2.4e+06 M⁻¹ s⁻¹ [lines of one column] | 
canine IgG.B Fc variant G309A (SASA-tagged CH2-CH3) (Fc fusion) | 0.348 s⁻¹ and 0.0719 s⁻¹ [lines of one column] | 1.4e+06 M⁻¹ s⁻¹ and 244000 M⁻¹ s⁻¹ [lines of one column] | 
canine IgG.B Fc variant G309P (SASA-tagged CH2-CH3) (Fc fusion) |  |  | Kd [2]: 635, 434, 637, 718 nM [lines of one column]; koff [2]: 0.239, 0.242, 0.132, 0.145 s⁻¹ [lines of one column]; kon [2]: 377000, 558000, 207000, 202000 M⁻¹ s⁻¹ [lines of one column]
canine IgG.B Fc variant H433A (SASA-tagged CH2-CH3) (Fc fusion) |  | 862000 M⁻¹ s⁻¹ and 278000 M⁻¹ s⁻¹ [lines of one column] | 
canine IgG.B Fc variant K315A (SASA-tagged CH2-CH3) (Fc fusion) | 17.4 s⁻¹ and 0.134 s⁻¹ [lines of one column] | 4.1e+07 M⁻¹ s⁻¹ and 245000 M⁻¹ s⁻¹ [lines of one column] | 
canine IgG.B Fc variant L252A (SASA-tagged CH2-CH3) (Fc fusion) | 0.0969 s⁻¹ and 0.567 s⁻¹ [lines of one column] | 332000 M⁻¹ s⁻¹ and 2.4e+06 M⁻¹ s⁻¹ [lines of one column] | 
canine IgG.B Fc variant M428A (SASA-tagged CH2-CH3) (Fc fusion) | 0.169 s⁻¹ and 0.532 s⁻¹ [lines of one column] |  | 
canine IgG.B Fc variant N434W (SASA-tagged CH2-CH3) (Fc fusion) |  |  | koff [2]: 0.028 s⁻¹ and 0.318 s⁻¹ [lines of one column]; kon [2]: 693000 M⁻¹ s⁻¹ and 4.2e+06 M⁻¹ s⁻¹ [lines of one column]
canine IgG.B Fc variant P307A (SASA-tagged CH2-CH3) (Fc fusion) | 93.1 s⁻¹ and 1.23 s⁻¹ [lines of one column] | 2.9e+08 M⁻¹ s⁻¹ and 3.7e+06 M⁻¹ s⁻¹ [lines of one column] | 
canine IgG.B Fc variant Q285A (SASA-tagged CH2-CH3) (Fc fusion) | 0.112 s⁻¹ and 35.2 s⁻¹ [lines of one column] | 328000 M⁻¹ s⁻¹ and 1.4e+08 M⁻¹ s⁻¹ [lines of one column] | 
canine IgG.B Fc variant T250A (SASA-tagged CH2-CH3) (Fc fusion) |  | 1.9e+07 M⁻¹ s⁻¹ and 3.9e+06 M⁻¹ s⁻¹ [lines of one column] | 
canine IgG.B Fc variant T256A (SASA-tagged CH2-CH3) (Fc fusion) | 0.166 s⁻¹ and 72.4 s⁻¹ [lines of one column] | 371000 M⁻¹ s⁻¹ and 2.4e+08 M⁻¹ s⁻¹ [lines of one column] | 
canine IgG.B Fc variant Y436A (SASA-tagged CH2-CH3) (Fc fusion) |  | 1e+06 M⁻¹ s⁻¹ and 244000 M⁻¹ s⁻¹ [lines of one column] | 
wild-type canine IgG.B Fc (SASA-tagged CH2-CH3) (Fc fusion, part only; not given: serum albumin single-domain tag, part only) chain, part: APEMLGGPSVFIFPPKPKDTLLIARTPEVTCVVVDLDPEDPEVQISWFVDGKQMQTAKTQPREEQFNGTYRVVSVLPIGHQDWLKGKQFTCKVNNKALPSPIERTISKARGQAHQPSVYVLPPSREELSKNTVSLTCLIKDFFPPDIDVEWQSNGQQEPESKYRTTPPQLDEDGSYFLYSKLSVDKSRWQRGDTFICAVMHEALHNHYTQESLSHSPGK | 1.16, 0.375, 0.185, 0.314, 0.188, 0.201, 0.16, 0.152, 0.166, 0.479, 0.135, 0.196 s⁻¹ [lines of one column] | 3.6e+06 M⁻¹ s⁻¹, 632000 M⁻¹ s⁻¹, 442000 M⁻¹ s⁻¹, 587000 M⁻¹ s⁻¹, 386000 M⁻¹ s⁻¹, 391000 M⁻¹ s⁻¹, 265000 M⁻¹ s⁻¹, 310000 M⁻¹ s⁻¹, 269000 M⁻¹ s⁻¹, 780000 M⁻¹ s⁻¹, 290000 M⁻¹ s⁻¹, 173000 M⁻¹ s⁻¹ [lines of one column] | Kd [1]: 321 nM, 592 nM, 418 nM, 534 nM, 488 nM, 514 nM, 606 nM, 489 nM, 616 nM, 614 nM, 465 nM, 1.13 µM [lines of one column]; WT KD Avg/Variant KD [1]: 1.76, 0.96, 1.35, 1.06, 1.16, 1.1, 0.93, 0.92, 1.22, 0.5 [lines of one column]

From patent US20240166748A1
